Measurements as given in article PMC6323126.
No constants are given. Whether binding was seen depends on the method and setting. Binding seen in cells or lysates may run through a third protein. Where a sequence is shown, tags or fusion partners need not be part of it.

Key:
Test in all cases: co-IP; HEK293FT cells transfected with tagged plasmids, lysed 24 h later in RIPA buffer; immunoprecipitation with indicated antibodies and Protein A/G beads; immunoblot
[1] = molecular target: T1, Flag-tagged SLMAP Δ161–230 (human) (UniProt Q14BN4)
T1 sequence: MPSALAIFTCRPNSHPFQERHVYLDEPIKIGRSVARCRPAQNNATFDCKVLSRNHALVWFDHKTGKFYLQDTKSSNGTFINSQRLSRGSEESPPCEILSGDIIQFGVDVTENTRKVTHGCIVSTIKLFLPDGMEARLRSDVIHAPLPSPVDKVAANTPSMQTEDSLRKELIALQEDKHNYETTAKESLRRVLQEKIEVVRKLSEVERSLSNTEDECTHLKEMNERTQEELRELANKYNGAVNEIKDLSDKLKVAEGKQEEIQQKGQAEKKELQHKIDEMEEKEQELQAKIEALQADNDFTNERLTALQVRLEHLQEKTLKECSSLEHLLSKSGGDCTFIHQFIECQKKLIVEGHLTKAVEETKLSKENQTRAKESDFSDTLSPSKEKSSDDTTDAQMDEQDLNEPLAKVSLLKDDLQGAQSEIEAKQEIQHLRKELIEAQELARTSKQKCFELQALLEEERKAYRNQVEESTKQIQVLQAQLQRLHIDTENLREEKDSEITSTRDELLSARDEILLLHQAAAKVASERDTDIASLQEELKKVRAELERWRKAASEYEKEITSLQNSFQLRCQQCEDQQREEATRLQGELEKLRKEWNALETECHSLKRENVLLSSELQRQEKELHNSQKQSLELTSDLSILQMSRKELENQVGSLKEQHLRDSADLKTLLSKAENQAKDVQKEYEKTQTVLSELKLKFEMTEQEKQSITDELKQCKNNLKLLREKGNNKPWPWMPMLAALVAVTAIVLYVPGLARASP

[2] = molecular target: T2, Flag-tagged STRN3 Δ64–190 (human) (UniProt Q13033)
T2 sequence: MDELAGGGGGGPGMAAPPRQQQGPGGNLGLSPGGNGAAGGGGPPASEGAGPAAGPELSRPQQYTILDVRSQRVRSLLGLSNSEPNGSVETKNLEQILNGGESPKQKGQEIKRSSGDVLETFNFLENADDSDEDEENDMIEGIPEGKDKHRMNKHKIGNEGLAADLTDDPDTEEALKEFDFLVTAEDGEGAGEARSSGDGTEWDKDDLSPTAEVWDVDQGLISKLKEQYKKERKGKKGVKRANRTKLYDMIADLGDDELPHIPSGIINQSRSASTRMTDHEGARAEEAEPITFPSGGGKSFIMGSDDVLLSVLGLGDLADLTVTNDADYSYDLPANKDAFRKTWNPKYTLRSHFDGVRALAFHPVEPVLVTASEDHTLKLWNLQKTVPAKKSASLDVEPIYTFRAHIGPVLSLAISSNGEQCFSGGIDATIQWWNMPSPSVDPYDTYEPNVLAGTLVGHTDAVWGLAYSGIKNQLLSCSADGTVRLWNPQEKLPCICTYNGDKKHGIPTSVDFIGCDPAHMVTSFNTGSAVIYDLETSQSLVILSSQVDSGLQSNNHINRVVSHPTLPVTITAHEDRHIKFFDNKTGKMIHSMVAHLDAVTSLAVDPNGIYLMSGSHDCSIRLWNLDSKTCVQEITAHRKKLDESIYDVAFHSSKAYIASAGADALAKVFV

[3] = molecular target: T3, Flag-tagged SLMAP 4LD (L182D/L186D/L189D/L193D) (human) (UniProt Q14BN4)
T3 sequence: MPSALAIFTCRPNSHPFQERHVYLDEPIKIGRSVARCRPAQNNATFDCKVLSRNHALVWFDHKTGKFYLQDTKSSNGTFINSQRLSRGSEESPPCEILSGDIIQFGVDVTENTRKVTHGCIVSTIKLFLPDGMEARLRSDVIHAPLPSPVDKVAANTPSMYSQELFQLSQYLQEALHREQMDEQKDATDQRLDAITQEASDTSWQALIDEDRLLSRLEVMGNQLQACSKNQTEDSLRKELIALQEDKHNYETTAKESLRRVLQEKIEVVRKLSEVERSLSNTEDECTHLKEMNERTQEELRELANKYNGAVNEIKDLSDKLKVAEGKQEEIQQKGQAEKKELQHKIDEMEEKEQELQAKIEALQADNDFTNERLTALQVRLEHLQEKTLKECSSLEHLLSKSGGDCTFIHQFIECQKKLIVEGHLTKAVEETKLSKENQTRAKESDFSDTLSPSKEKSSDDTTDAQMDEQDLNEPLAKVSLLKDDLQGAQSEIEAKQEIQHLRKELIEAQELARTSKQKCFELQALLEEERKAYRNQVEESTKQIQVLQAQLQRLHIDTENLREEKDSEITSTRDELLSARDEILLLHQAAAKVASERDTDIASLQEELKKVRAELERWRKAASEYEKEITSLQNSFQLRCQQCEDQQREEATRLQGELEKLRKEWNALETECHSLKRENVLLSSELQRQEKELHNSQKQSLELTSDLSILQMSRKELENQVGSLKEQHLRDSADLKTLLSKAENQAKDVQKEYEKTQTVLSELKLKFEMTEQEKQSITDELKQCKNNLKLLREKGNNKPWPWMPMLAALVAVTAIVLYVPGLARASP

Measured: binding

B1: HA-tagged SIKE1 (wildtype, in cells) (protein, UniProt Q9BRV8 1-207)
chain: MSCTIEKILTDAKTLLERLREHDAAAESLVDQSAALHRRVAAMREAGTALPDQYQEDASDMKDMSKYKPHILLSQENTQIRDLQQENRELWISLEEHQDALELIMSKYRKQMLQLMVAKKAVDAEPVLKAHQSHSAEIESQIDRICEMGEVMRKAVQVDDDQFCKIQEKLAQLELENKELRELLSISSESLQARKENSMDTASQAIK
no binding: all assays above
